Consider 116 compounds from PubChem BioAssay AID488969 (Vanderbilt High Throughput Screening Facility, 2010).

Whole data set: some 110,000 compounds, median “z-score” near -0.1, cut for the highest 2% near 2. The list shows a part of the results. Activity calls are given as the source filed them.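 The calls were made as follows: active = z-score in the third read window above 3 or below -3; inactive = the rest.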

This assay concerns the target Metabotropic glutamate receptor 8 (Rattus norvegicus) (UniProt P70579). As to the kind of experiment: mGluR8 Gi/Go-coupled signaling modulation – cell-based, rat, thallium flux, HTS, primary screen (AID 488969). Particulars: HEK293 rat mGluR8, GIRK (G protein-gated inwardly rectifying potassium channel) thallium flux, FluoZin2; at 10 µM; stronger effect = higher value; submaximal glutamate (EC20) added with thallium.
UniProt P70579, sequence (P70579 whole entry, looked up): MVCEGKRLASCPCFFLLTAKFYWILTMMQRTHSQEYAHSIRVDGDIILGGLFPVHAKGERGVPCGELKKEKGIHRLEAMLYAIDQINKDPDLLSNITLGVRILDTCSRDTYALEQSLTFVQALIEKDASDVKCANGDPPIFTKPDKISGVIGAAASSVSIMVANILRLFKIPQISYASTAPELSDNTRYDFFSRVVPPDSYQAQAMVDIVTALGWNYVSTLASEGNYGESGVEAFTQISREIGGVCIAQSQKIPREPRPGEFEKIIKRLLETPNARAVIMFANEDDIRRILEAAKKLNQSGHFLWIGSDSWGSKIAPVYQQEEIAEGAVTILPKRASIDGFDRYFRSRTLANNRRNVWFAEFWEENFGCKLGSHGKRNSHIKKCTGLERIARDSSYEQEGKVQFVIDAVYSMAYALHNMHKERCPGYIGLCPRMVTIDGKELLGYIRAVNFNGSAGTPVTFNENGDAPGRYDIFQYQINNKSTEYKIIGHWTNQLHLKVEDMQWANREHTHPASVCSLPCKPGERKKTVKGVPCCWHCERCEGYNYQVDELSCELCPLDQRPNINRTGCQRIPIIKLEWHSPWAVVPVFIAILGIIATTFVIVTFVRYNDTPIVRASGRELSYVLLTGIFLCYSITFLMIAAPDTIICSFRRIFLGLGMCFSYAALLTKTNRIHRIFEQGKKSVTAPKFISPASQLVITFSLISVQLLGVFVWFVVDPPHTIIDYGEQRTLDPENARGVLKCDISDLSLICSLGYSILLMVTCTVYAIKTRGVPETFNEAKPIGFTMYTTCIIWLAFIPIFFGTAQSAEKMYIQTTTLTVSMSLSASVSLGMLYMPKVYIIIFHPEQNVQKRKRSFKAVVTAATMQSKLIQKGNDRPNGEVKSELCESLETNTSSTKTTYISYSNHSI
The compound `O=C(Nc1ccc2c(c1)OCO2)c1cccc(S(=O)(=O)N2CCCC2)c1` returned a z-score of 0.0256.
Turning to `O=C1NC(=O)C(c2cn(-c3ccccc3)nc2-c2ccc(F)cc2)N1` (stereo unspecified), the z-score is -0.00714.
Take `Cc1cccc(C(=O)NC(=S)NNC(=O)c2ccc(Cl)cc2)c1`: the z-score is active: 6.22.
In the case of `O=C(NC1=NCCS1)c1cc(-c2ccc(-c3ccccc3)cc2)nc2ccccc12` it was -0.0857; in that of `CNC(C)c1cc(OC)ccc1OC` (stereo unspecified), -0.145.
`c1ccc(Nc2nc(N3CCCCC3)nc(N3CCNCC3)n2)cc1` gave a z-score of 1.8.
Turning to `COc1ccc(N2C(=O)C3CCCN3C2c2cccs2)cc1` (stereo unspecified), the z-score was 0.246.
On to `Cn1c(=O)[nH]c2sc3c(c2c1=O)CC(C)(C)OC3`, for which the z-score was -0.263.
`CCCC12CN3CC(C)(CN(C1)C3c1ccc3c(c1)OCO3)C2=O` (stereo unspecified) registered a z-score of 1.26.
In the case of `CCOC(=O)N1CCC(N(CCCOC)C(=O)Nc2ccc(CC)cc2)CC1` it was 0.0496; in that of `O=C(Nc1cccc(C(F)(F)F)c1)NC1CCCCC1`, -0.422.
With `Cc1c(NC(=O)CCCOc2ccccc2)cccc1[N+](=O)[O-]`, the z-score was -0.116.
For the compound `CCOC(=O)c1cc(NC(=O)N2CCCCC2)c(C)nc1C`, the z-score is -0.296.
Regarding `Cc1cc(N2C(=O)C3CC=CC(C)C3C2=O)no1` (stereo unspecified), the z-score was -1.13.
The value for `Cc1ccc(NC(=O)CSc2nnc(-c3ccncc3)o2)cc1` was 0.17; that for `Cc1ccc(SCC(=O)Nc2ccccc2C(=O)N2CCOCC2)cc1` was -0.074; that for `Cc1cc(C)nc(SCC(=O)N/N=C\c2sccc2C)n1` was -0.153.
As for `O=C(COC(=O)c1ccc(Cl)s1)c1cc2ccccc2o1`, the z-score came to 0.321.
The compound `CCOc1ccccc1NC(=O)Nc1c(C)n(-c2ccccc2)c(=O)n1C` yielded a z-score of 0.382.
The value for `CCc1nc2ccccc2[nH]1` was 0.00543; that for `OCCOCCn1c(-c2ccccc2)nc(=S)c2c1CCCC2` was 0.333.
As for `CN1C(=O)c2ccc(NC(=O)c3ccc(N4CCCCC4)c([N+](=O)[O-])c3)cc2C1=O`, the z-score was -0.139.
Consider `C=CCNC(=S)Nc1cc(Cl)ccc1OC`, for which the z-score was -0.117.
The value for `COC(=O)c1c(NC(=O)c2ccc(Br)o2)sc(C)c1C` was -0.47; that for `Cc1ccc(/C=c2\sc3nc(-c4ccco4)nn3c2=O)o1` was -1.53; that for `Cn1nc(-c2ccccc2)c(CSc2cccc(Cl)c2)c1Cl` was 0.0135.
`CCc1ccc(NC(=O)N(C2CCC(C)CC2)C2CCN(C(C)=O)CC2)cc1` (stereo unspecified) showed a z-score of 0.199.
In the case of `O=C(/C=C\c1ccco1)Nc1nc(-c2ccccc2)cs1`, the z-score was -0.146.
In the case of `Cn1c(SCCOc2ccccc2Cl)nnc1-c1ccncc1` it was -0.133.
The compound `O=C1C2C3C=CC(C4CC34)C2C(=O)N1CCc1ccccc1` (stereo unspecified) had a z-score of 0.403.
For `Clc1cccc(-c2cc3nc4c(c(NCc5ccco5)n3n2)CCCC4)c1`, the z-score is -0.169.
For the compound `Cc1oc2c(c1C(=O)c1ccc(Cl)cc1)C(=O)C(=O)c1ccccc1-2`, the z-score was found to be 0.323.
For `O=C(O)c1cccc2cccnc12`, the z-score is -0.196.
The value for `CCOC(=O)c1[nH]c2ccc(OCC)cc2c1NC(=O)CN1CCCC(C)C1` (stereo unspecified) was 0.0702; that for `O=C(O)[C@H](Cc1ccccc1)N1Cc2ccccc2C1=O` was -0.186.
On to `Cc1cc(C)cc(OCC(=O)NCC2CCCO2)c1` (stereo unspecified), for which the z-score is 1.08.
For the compound `CCN1CCCC1CNC(=O)c1ccccc1Cl` (stereo unspecified), the z-score was -0.0729.
Consider `O=C(NNc1nc2ccccc2nc1C(F)(F)F)c1ccccc1`, for which the z-score amounted to 2.44.
`Fc1ccc(/C=N/Nc2ccccn2)cc1`: the z-score is -0.0704.
`Cc1cccc(OCC(=O)NCc2ccncc2)c1C` came in with a z-score of 1.61.
The value for `Cc1ccc(Sc2c(C=O)c3ccccc3n2C)cc1` was -0.314.
With `CCC(CC)C(=O)NCCN1CCN(C(=O)C(CC)CC)CC1`, the z-score came out at 0.112.
In the case of `N=c1n(Cc2ccccc2)c2ccccc2n1CC(O)c1ccccc1` (stereo unspecified) it was 0.899; in that of `CCCCNC(=O)Nc1cc(C)on1`, 0.265.
For `Cc1cc(C(F)(F)F)nn1Cc1n[nH]c(=S)n1-c1ccc(Cl)cc1`, the z-score is -0.102.
Consider `COc1cc(Nc2nc(-c3ccccc3)c3cc(C)ccc3n2)cc(OC)c1OC`, for which the z-score was -0.218.
On to `CCN1c2ccccc2NC2N=C(OC)C(c3ccccc3)C21` (stereo unspecified), for which the z-score is -0.615.
`C=C(C)CN1C(=O)c2ccccc2C1=O`: the z-score was determined as 0.241.
On to `CCNC(=S)NCc1ccc(Cl)cc1`, for which the z-score worked out at 0.000554.
Regarding `COc1ccc(C2=NOC(C(=O)NCc3ccc(F)cc3)C2)cc1OC` (stereo unspecified), the z-score was -0.0539.
On to `CC1CC/C(=N/Nc2ccccc2)C(=O)N1` (stereo unspecified), for which the z-score is 0.144.
As to `COc1cc(C(=O)NCc2cccc3ccccc23)ccc1OCc1ccccc1`, the z-score is -0.226.
As to `CCOc1ncccc1C(=O)OCC(=O)Nc1cc(C)ccc1C`, the z-score is -0.205.
In the case of `CCOc1ccc(C(=O)N(C)C2CCS(=O)(=O)C2)cc1` (stereo unspecified) it was 0.13; in that of `CC(C)N(Cc1ccccc1)C(=O)COC(=O)c1ccc2c(c1)OCCO2`, -0.487.
In the case of `CC1(C)C(c2cccs2)=[N+]([O-])C2(CCCCC/C2=N\NC(N)=O)N1O` (stereo unspecified), the z-score is -0.175.
`COc1cccc(N(C(=O)CCl)C(C(=O)NCCc2ccccc2)c2cccs2)c1` (stereo unspecified): the z-score was -0.237.
Consider `CCOC(=O)C1=C(c2ccccc2)N=c2s/c(=C\c3ccco3)c(=O)n2C1c1cccs1` (stereo unspecified), for which the z-score was -0.0854.
In the case of `Cc1cc(C)n2cc(CSCc3ccccc3)nc2n1`, the z-score was found to be 1.06.
As to `O=C(N/N=C/c1ccc([N+](=O)[O-])o1)c1cc(-c2cccc(Br)c2)nc2ccccc12`, the z-score was -0.204.
Consider `O=S(=O)(/N=C(/Nc1ccccc1)C(F)(F)F)c1ccccc1`, for which the z-score is -0.1.
Take `CCCc1c(C)nc2ccc(OC)cc2c1SCCC(=O)O`: the z-score is -0.193.
`O=c1c(C(c2ccc(O)cc2)c2c(O)nc3n(c2=O)CCCS3)c(O)nc2n1CCCS2`: the z-score was -0.799.
`CCCCN(C)CCCNC(=O)c1ccc(N2CCCC2=O)cc1`: the z-score stood at 0.26.
As to `CCN(Cc1ccccc1)C(c1ccccn1)c1nnnn1C(C)(C)CC` (stereo unspecified), the z-score is -0.194.
Consider `Cc1[nH]ccc(=O)c1OCc1ccccc1`, for which the z-score is -0.0749.
`O=C(Cc1ccccc1)Nc1ccc(NC(=O)c2cccc(Cl)c2)cc1`: the z-score was -0.374.
`O=C(NCc1ccc2c(c1)OCO2)c1ccc(CN2CCc3ccccc3C2)cc1`: the z-score was -0.165.
As for `Cn1c(=O)c(=O)n(C)c2cc(S(=O)(=O)N3CCN(c4cccc(C(F)(F)F)c4)CC3)ccc21`, the z-score is -0.265.
In the case of `Cc1ccc(Oc2cc(C)nc(-c3ccccc3O)n2)cc1` it was 0.181; in that of `COc1cc2c(cc1OC)-c1nnc(C)n1C1(CCCC1)C2`, -0.0623; in that of `CCN(C(=O)c1ccnc(C(C)(C)C)c1)c1ccccc1`, -0.245.
Regarding `CCCCCCn1c(CN2CCCC(C)C2)nc2c1c(=O)n(C)c(=O)n2C` (stereo unspecified), the z-score was -0.779.
Regarding `CC(=O)N1c2c(cc(Br)cc2S(=O)(=O)N2CCN(c3ccccn3)CC2)CC1C` (stereo unspecified), the z-score was determined as 0.0805.
The value for `NC(=O)COC(=O)c1ccc(S(=O)(=O)N2CCCCCC2)cc1` was -0.304.
`CC(NC(=O)c1cnc2n(c1=O)CCS2)c1ccccc1` (stereo unspecified): the z-score is -0.182.
`Cc1cnc(NC(=O)C2CCCO2)s1` (stereo unspecified): the z-score was -0.0828.
Turning to `CN(CCNC(=O)c1cn(C)c2ccc(S(=O)(=O)N(C)C)cc2c1=O)CCc1ccccc1`, the z-score is -0.328.
In the case of `CC(Oc1ccc(Cl)cc1Cl)C(=O)OCn1nnc2ccccc2c1=O` (stereo unspecified) it was -1.64; in that of `Cc1cc(C)c(NC(=O)C2CCN(c3cnccn3)CC2)c(C)c1`, -0.306; in that of `Cc1cccc(/C=c2\s/c(=C\C(=O)C(C)(C)C)[nH]c2=O)c1`, active: 9.35.
The compound `Cc1cccc(-c2c3c(=O)n(C)c(=O)n(C)c3cn2C(C)C)c1` returned a z-score of 0.0615.
In the case of `CCC(=O)Nc1ccc(C(=O)N/N=C/c2cccnc2)cc1` it was -0.023; in that of `CNCc1ccccc1Sc1ccc(OC)c(OC)c1`, 0.3.
As to `COc1cc(OC)c(C2SCCN2S(=O)(=O)c2ccc(F)cc2)cc1OC` (stereo unspecified), the z-score is -0.279.
For `CCCCCCSc1nc2c(c(=O)[nH]c(=O)n2C)n1C`, the z-score was -0.259.
For the compound `Cc1ccc(C)c(NC(=O)CSc2ncnc3nc[nH]c23)c1`, the z-score came out at 0.0633.
Consider `O=C(NC(=S)Nc1ccc(CN2CCOCC2)cc1)c1cccc([N+](=O)[O-])c1`, for which the z-score came out at 2.19.
For `COc1ccc(NC(=O)c2ccco2)c([N+](=O)[O-])c1`, the z-score is -0.171.
Take `CC1CCCCC1NC(=O)CSc1nnnn1-c1ccccc1` (stereo unspecified): the z-score was determined as 0.0648.
Regarding `O=C(Nc1nc(-c2cc3ccccc3oc2=O)cs1)c1ccc(Br)o1`, the z-score was active: 13.7.
The value for `CCOC(=O)c1cc(C#N)c(SCc2cccc3ccccc23)nc1C` was 0.231.
The value for `Cc1nc2cc(C(=O)N3CCc4ccccc43)ccc2n1-c1ccc(F)c(F)c1` was -0.827.
With `CCCCNc1cc(=O)n(C)c(=O)[nH]1`, the z-score was -0.35.
As for `Cc1c(Cl)c([N+](=O)[O-])nn1CCCC(=O)Nc1cccc(Cl)c1`, the z-score was -2.13.
Compound `COCCn1c(-c2ccccc2)nc2oc3cc(OC)ccc3c(=O)c2c1=O` came in with a z-score of 0.0224.
As for `N#Cc1cnn2cc(-c3ncc(C(F)(F)F)cc3Cl)cnc12`, the z-score was 0.0881.
In turn, `O=C(Nc1ccccc1)c1ccc2nc(-c3ccco3)c(-c3ccco3)nc2c1` returned a z-score of 0.011.
The value for `Cc1ccc2nc(Cl)c(C3CC(c4cccs4)=NN3C(=O)CCCC(=O)O)cc2c1` (stereo unspecified) was -0.0637; that for `C=CCOc1nc2c(c(=O)n(C)c(=O)n2C)n1Cc1ccccc1Cl` was -1.74.
In turn, `O=C(CCc1ccc(S(=O)(=O)NCc2ccccc2)cc1)N1CCN(Cc2ccc3c(c2)OCO3)CC1` displayed a z-score of 0.0321.
The value for `O=C1c2ccccc2C(=O)N1C/C=C/c1ccccc1` was 0.449; that for `Cc1c(N=C/C=C/c2ccccc2)cnn1C` was 0.563.
As for `CCn1c(C)cs/c1=N\C(=S)Nc1ccccc1C`, the z-score was -1.3.
`CCOc1cc(C2/C(=C(\O)c3cc(C)ccc3C)C(=O)C(=O)N2CCN(C)C)ccc1O` (stereo unspecified) returned a z-score of 0.0564.
Regarding `Cc1ccc(OCc2nnc(NC(=O)c3ccco3)s2)cc1`, the z-score was -0.0697.
With `Cc1cccc(C)c1OCC(O)CN` (stereo unspecified), the z-score is -0.434.
In the case of `CCc1ccc2oc(=O)cc(CN3CCOCC3)c2c1`, the z-score was -0.453.
Turning to `Cc1ccc(CNC(=O)CN(Cc2cccs2)C(=O)C2(C)CC(=O)N=C3C=CC=CN32)cc1` (stereo unspecified), the z-score was -0.114.
On to `CC1CC(C)CN(C(=S)Nc2ccc3nc4n(c(=O)c3c2)CCCCC4)C1` (stereo unspecified), for which the z-score is -0.417.
Regarding `COC(=O)c1[nH]c2cccc(Cl)c2c1NC(=O)CN1CCN(CCO)CC1`, the z-score was -0.183.
The value for `COc1cc(C=O)ccc1OCCCOc1ccccc1[N+](=O)[O-]` was -0.16.
As for `O=C(NCc1ccc(Cl)cc1)c1cc2ccccn2n1`, the z-score was -0.516.
With `C=CCC1C=CCC(CC=C)N1C(=O)c1ccccc1[N+](=O)[O-]` (stereo unspecified), the z-score is -0.378.
As to `CCOC(=O)/C(C#N)=C\c1ccc(N2CCN(C/C=C/c3ccccc3)CC2)cc1`, the z-score was -0.322.
Turning to `CCOc1ccccc1N1CCN(C(=O)c2ccncc2)CC1`, the z-score worked out at 0.397.
